Where “and” joins values, the source holds several entries; their conditions need not be identical. Equal values may be shown once. Screen size: about 48,000 compounds; about 1,200 (2.5%) were called active. About 2% were inconclusive and are not listed.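 The calls were made as follows: active = activation of at least 60% and not above a set upper limit (about 1 call in 100 departs from these limits); inconclusive = activation of 40% to 60%, or above that upper limit; inactive = activation under 40%.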 This is one part of the list.
What follows are molecules tested against Probable G-protein coupled receptor 32 (Homo sapiens) (UniProt O75388) (assay: qHTS for Agonists of Human Resolvin D1 Receptor DRV1). Conditions: CHO-K1 GPR32 beta-arrestin PathHunter luminescence, 90 min; at 76.9 µM; active compounds read high; zero percent set by DMSO-only wells.
Outline: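 Luminescent readout of beta-Gal complementation quantifies ligand-induced beta-arrestin association with GPR32 in CHO-K1 cells; 90 min compound incubation at 37 °C, detection 1 h at room temperature.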
Also: 0% is about no effect.

Sequence of UniProt O75388 (O75388 whole entry, looked up): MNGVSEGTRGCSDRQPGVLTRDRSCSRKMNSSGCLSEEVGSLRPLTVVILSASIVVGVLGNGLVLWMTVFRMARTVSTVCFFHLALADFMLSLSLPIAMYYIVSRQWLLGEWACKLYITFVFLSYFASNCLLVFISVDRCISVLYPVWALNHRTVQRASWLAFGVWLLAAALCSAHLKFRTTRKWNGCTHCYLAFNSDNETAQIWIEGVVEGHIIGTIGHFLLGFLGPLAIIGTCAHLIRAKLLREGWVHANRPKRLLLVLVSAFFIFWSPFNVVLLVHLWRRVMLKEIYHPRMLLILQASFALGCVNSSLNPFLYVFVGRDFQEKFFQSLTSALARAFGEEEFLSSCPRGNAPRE

Question: `CCOc1ccc(NC(=O)c2cnc3sc(N4CCOCC4)nn3c2=O)cc1` was tested. Which activation did it give?
Answer: Its activation is inactive: -12.9%.

Question: With `COc1cccc(N2CC(NC(=O)COc3ccccc3F)CC2=O)c1` (stereo not given) as the molecule, how does the activation read?
Answer: Its activation is inactive: -8.16%.

Question: With `O=C(Nc1ccccc1Br)c1cc(CN2CCCC2)on1` as the molecule, how does the activation read?
Answer: Its activation is inactive: -9.24%.

Question: With `Cc1nc2cc(-c3cccc(F)c3)nn2c(C)c1CCC(=O)NC(C)c1ccccc1` (stereo not given) as the molecule, how does the activation read?
Answer: Its activation is inactive: -1.6%.

Question: Which activation does the source give for `COc1cc(C(=O)NCCc2sc(-c3cccc(F)c3)nc2C)cc(OC)c1OC` here?
Answer: Its activation is inactive: -12.4%.

Question: How did the activation turn out when `O=C(CSc1oc(-c2ccc(F)cc2)nc1S(=O)(=O)c1ccccc1)NC1CCCCC1` was run?
Answer: Its activation is inactive: -7.69%.

Question: How did the activation turn out when `CCSc1nnc(NC(=O)c2cc(=O)c3cc(C)ccc3o2)s1` was run?
Answer: The activation was inactive: 28.3%.

Question: Which activation does the source give for `CCc1ccc(CNC(=O)c2ccc(-c3nc(CSc4ccc(C)cc4)c(C)o3)cc2)cc1` here?
Answer: The activation was inactive: -10.4%.

Question: Which activation does the source give for `COC(=O)c1c(NC(=O)C2c3ccccc3Oc3ccccc32)sc2c1CCC(C(C)(C)C)C2` (stereo not given) here?
Answer: The activation was inactive: 1.75%.

Question: `COc1cc2c(cc1NC(=O)c1ccccc1C)n(C)c(=O)n2C` was tested. Which activation did it give?
Answer: Its activation is inactive: 15.8%.

Question: For `COc1cccc(CNC(=O)CCn2cnc3ccccc3c2=O)c1`, which activation is on record?
Answer: The activation was inactive: -12%.

Question: For `COc1cccc(-c2cc(C(=O)NCc3ccc(F)cc3)no2)c1`, which activation is on record?
Answer: Its activation is inactive: 37.8%.

Question: `CCOC(=O)c1ccc(NC(=O)c2oc3c(c2C)-c2nn(Cc4ccccc4Cl)cc2CC3)cc1` was tested. Which activation did it give?
Answer: Its activation is inactive: -30.4%.

Question: Which activation does the source give for `CC(C)CNc1ncnc2onc(-c3ccc(Cl)cc3)c12` here?
Answer: The activation was active: 90.1%.

Question: With `COc1ccc(-c2nnc(SCC(=O)Nc3c(C)cccc3C)nc2-c2ccc(OC)cc2)cc1` as the molecule, how does the activation read?
Answer: The activation was inactive: -11.4%.

Question: For `CCCCOc1ccccc1C1CC(=O)Nc2cc(C)c(C)cc21` (stereo not given), which activation is on record?
Answer: The activation was inactive: -1.03%.

Question: `NC1(C(=O)O)CC1` was tested. Which activation did it give?
Answer: The activation was inactive: -3.84%.

Question: With `CC(CCc1ccccc1)NC(=O)Cn1ncc2c3ccccc3n(Cc3ccccc3)c2c1=O` (stereo not given) as the molecule, how does the activation read?
Answer: The activation was inactive: -9.75%.

Question: How did the activation turn out when `O=C(CCN1C(=O)c2ccccc2Sc2ncccc21)Nc1ccc(F)cc1` was run?
Answer: The activation was inactive: -19.8%.

Question: With `COc1cc2c(cc1OC)n(CC(=O)c1ccc(C)cc1C)c(=O)n1nc(CCn3nc(C)cc3C)nc21` as the molecule, how does the activation read?
Answer: Its activation is inactive: -12%.

Question: With `O=S(=O)(c1ccc(-c2cnc(C3CC3)o2)cc1)N1CCN(c2ccccc2F)CC1` as the molecule, how does the activation read?
Answer: The activation was inactive: 8.48%.

Question: With `CCN(CC)C(=O)c1ccc(O)c(OC)c1` as the molecule, how does the activation read?
Answer: Its activation is inactive: -5.92% and inactive: 7.45%.

Question: With `Cc1nn2c(C)c(C(=O)N3CCN(c4ccc(Cl)cc4)CC3)cnc2c1-c1ccc(F)cc1` as the molecule, how does the activation read?
Answer: Its activation is inactive: -7.43%.

Question: How did the activation turn out when `Cc1cccc(Nc2sc(C(=O)c3ccc(Cl)cc3)c(N)c2C(N)=O)c1` was run?
Answer: The activation was inactive: -8.68%.

Question: How did the activation turn out when `COc1ccc(NC(=O)c2cc(-c3ccccc3F)no2)cc1` was run?
Answer: Its activation is inactive: 2.53%.

Question: How did the activation turn out when `COc1cccc(CNC(=O)Cn2nc(C)c3sc4ccccc4c3c2=O)c1OC` was run?
Answer: The activation was inactive: -0.55%.

Question: Which activation does the source give for `O=C(NCCCN1CCN(c2cccc(Cl)c2)CC1)c1ccc2nc(Cc3ccccc3)oc2c1` here?
Answer: The activation was inactive: 8.91%.

Question: `Cc1ccc2c(=O)cc(CSc3ncn[nH]3)[nH]c2c1C` was tested. Which activation did it give?
Answer: The activation was inactive: 22.1%.

Question: For `CCOC(=O)c1c(C)[nH]c(C)c1S(=O)(=O)N1CCC(C(=O)N2CCN(c3ccc(F)cc3)CC2)CC1`, which activation is on record?
Answer: Its activation is inactive: 13.9%.

Question: Which activation does the source give for `CCn1cc(C(=O)N2CCN(c3cccc(Cl)c3)CC2)c(=O)c2cc(S(=O)(=O)N3CCC(C)CC3)ccc21` here?
Answer: The activation was inactive: -21.4%.

Question: How did the activation turn out when `C=Cc1ccc(Cn2c(C)c(CNCCc3ccc(OCC)cc3)c(C(=O)O)c2C)cc1` was run?
Answer: Its activation is active: 67.5%.

Question: How did the activation turn out when `Cc1ccnc(NS(=O)(=O)c2ccc(NC(=O)c3ccc(C)c(C)c3)cc2)n1` was run?
Answer: Its activation is inactive: -10.1%.

Question: With `Cc1cccc(C)c1OCC(=O)N(Cc1ccco1)Cc1ccco1` as the molecule, how does the activation read?
Answer: The activation was inactive: -14.7%.

Question: Which activation does the source give for `Cc1ccccc1CN1C(=O)c2ccccc2Sc2ccc(C(=O)NCCc3ccccc3)cc21` here?
Answer: The activation was inactive: -20.7%.

Question: How did the activation turn out when `Cc1ccc2nc(NC(=O)c3ccc(S(=O)(=O)N4CCC(C)CC4)cc3)sc2c1` was run?
Answer: The activation was inactive: 0.0013%.

Question: `CCc1cccc(CC)c1NC(=O)c1c(C)oc2ccc(O)c(CN3CCCC3)c12` was tested. Which activation did it give?
Answer: The activation was inactive: 0.05%.

Question: Which activation does the source give for `CCCCNC(=O)c1ccc2c(c1)N=C(CC)c1ccccc1S2` here?
Answer: Its activation is inactive: -22.8%.

Question: For `Cc1ccc(N2CC(NC(=O)c3cccs3)CC2=O)cc1` (stereo not given), which activation is on record?
Answer: The activation was inactive: 0.0378%.

Question: With `CN1CCN(CCNC(=O)c2cnn(-c3ccc(F)cc3)c2C2CCN(C(=O)OC(C)(C)C)CC2)CC1` as the molecule, how does the activation read?
Answer: Its activation is inactive: 4.86%.

Question: How did the activation turn out when `O=C(CCCN1C(=O)c2cccnc2Oc2ccc(Cl)cc21)NCc1ccc(F)cc1` was run?
Answer: The activation was inactive: -8.72%.

Question: Which activation does the source give for `Cc1ccc(N2C(=O)CSC23C(=O)N(CC(=O)NCc2ccccc2)c2ccccc23)cc1` (stereo not given) here?
Answer: The activation was inactive: -6%.

Question: How did the activation turn out when `O=C(Nc1ccccc1)Nc1nnc(SCC(=O)N2CCCCC2)s1` was run?
Answer: The activation was inactive: 13.5%.

Question: Which activation does the source give for `CC1=C(c2ccc(C)c(C)c2)S(=O)(=O)N(Cc2ccc(C(=O)Nc3cc(F)ccc3F)cc2)C1=O` here?
Answer: Its activation is inactive: -9.94%.

Question: Which activation does the source give for `Cc1ccc2c(c1)C(=O)OC(C(=O)Nc1ccccc1C(=O)O)C2` (stereo not given) here?
Answer: The activation was inactive: 20%.

Question: `CCOc1ccc(-n2cc(-c3ccccc3)c3c(NC4CCCC4)ncnc32)cc1` was tested. Which activation did it give?
Answer: The activation was inactive: -34.4%.

Question: How did the activation turn out when `O=C(CN1C(=O)C2(SCC(=O)N2c2ccc(F)cc2)c2ccccc21)NC1CCCCC1` (stereo not given) was run?
Answer: The activation was inactive: -8.72%.

Question: For `CCc1cccc(NC(=O)CN2CCCN(Cc3cccc(C)c3)S2(=O)=O)c1`, which activation is on record?
Answer: The activation was inactive: 46.5%.

Question: For `COc1ccc(NC(=O)N2CCc3c([nH]c4ccc(OC)cc34)C2c2ccc(OC)cc2)cc1` (stereo not given), which activation is on record?
Answer: The activation was inactive: -24%.

Question: With `COc1ccc2nc(N3CCN(C(=O)C4CC4)CC3)sc2c1` as the molecule, how does the activation read?
Answer: Its activation is inactive: 6.34%.

Question: `COC(=O)c1cc2oc3ccccc3c2n1Cc1c(F)cccc1Cl` was tested. Which activation did it give?
Answer: The activation was inactive: -13.7%.

Question: How did the activation turn out when `CCN(CC)C(=O)C1CCCN(c2ncnc3onc(C)c23)C1` (stereo not given) was run?
Answer: The activation was inactive: 13%.

Question: How did the activation turn out when `COc1ccc(N2CCN(C(=O)c3ccc4nc(N5CCC(C)CC5)sc4c3)CC2)cc1` was run?
Answer: The activation was inactive: 10.7%.

Question: Which activation does the source give for `Cc1ccc(Cl)cc1N(C)C(=O)c1cnc(N2CCOCC2)c2ccccc12` here?
Answer: Its activation is inactive: -10.1%.

Question: How did the activation turn out when `COc1cccc(-c2nc3c(C#N)c[nH]n3c2NC2CCCCC2)c1OC` was run?
Answer: The activation was inactive: -28%.

Question: `CC(NC(=O)c1sc2ncccc2c1-n1cccc1)c1ccccc1` (stereo not given) was tested. Which activation did it give?
Answer: Its activation is inactive: -15%.

Source: PubChem BioAssay AID1346428 (National Center for Advancing Translational Sciences (NCATS), 2018)
